Reference: the supplement of paper PMC4604168 (melanoma cell lines)
The list shows a part of the results. Most values come without repeats; read them as rough.

Legend:
Assay in all cases: cell count relative to DMSO control; melanoma cells; higher = more viable cells
Conditions in all cases: library dose: low library concentration; 72 h
[1] = system: WM115
[2] = system: WM1716
[3] = system: WM1745
[4] = system: WM3526
[5] = system: WM3619
[6] = system: WM451Lu
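Also: cell number obtained by counting DAPI-stained nuclei in high-throughput microscope images with image analysis software, screen run in 1,536-well plates.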

| Structure (SMILES) | cell count [1] [%] | cell count [2] [%] | cell count [3] [%] | cell count [4] [%] | cell count [5] [%] | cell count [6] [%] |
| --- | --- | --- | --- | --- | --- | --- |
| Nc1ccn([C@@H]2O[C@H](CO)[C@@H](O)C2(F)F)c(=O)n1 [gemcitabine] + Cc1cc(N2CCOCC2)cc2[nH]c(-c3c(NC[C@@H](O)c4cccc(Cl)c4)cc[nH]c3=O)nc12 [BMS536924] (first compound 0.0004 µM, partner dose 0.2 µM) | 107 | 103 | 69.7 | 114 | 75.6 | 65.7 |
| Nc1ncn([C@H]2C[C@H](O)[C@@H](CO)O2)c(=O)n1 [decitabine] + Oc1cc(-c2nc(-c3ccccc3)[nH]c2-c2ccncc2)ccc1Cl [L779450] (first compound 0.1 µM, partner dose 0.2 µM) | 74 | 74.6 | 94.8 | 77.1 | 75.1 | 86.8 |
| Nc1nc(F)nc2c1ncn2[C@@H]1O[C@H](CO)[C@@H](O)[C@@H]1O [fludarabine] + Clc1ccc(Nc2nnc(Cc3ccncc3)c3ccccc23)cc1 [vatalanib] (first compound 0.2 µM, partner dose 2 µM) | 88 | 98.2 | 92.7 | 19.7 | 87.2 | 45 |
| CC(=O)O[C@@]12CO[C@@H]1C[C@H](O)[C@@]1(C)C(=O)[C@H](O)C3=C(C)[C@@H](OC(=O)[C@H](O)[C@@H](NC(=O)OC(C)(C)C)c4ccccc4)C[C@@](O)([C@@H](OC(=O)c4ccccc4)[C@H]21)C3(C)C [Docetaxel] + CC(=O)c1c(C)c2cnc(Nc3ccc(N4CCNCC4)cn3)nc2n(C2CCCC2)c1=O [palbociclib] (first compound 0.0001 µM, partner dose 0.04 µM) | 60.4 | 41.1 | 47.4 | 42 | 60.1 | 55.7 |
| CC(=O)O[C@@]12CO[C@@H]1C[C@H](O)[C@@]1(C)C(=O)[C@H](O)C3=C(C)[C@@H](OC(=O)[C@H](O)[C@@H](NC(=O)OC(C)(C)C)c4ccccc4)C[C@@](O)([C@@H](OC(=O)c4ccccc4)[C@H]21)C3(C)C [Docetaxel] + Cc1cc(N2CCOCC2)cc2[nH]c(-c3c(NC[C@@H](O)c4cccc(Cl)c4)cc[nH]c3=O)nc12 [BMS536924] (first compound 0.0001 µM, partner dose 0.2 µM) | 61.5 | 34 | 39.4 | 32.6 | 69.6 | 53.9 |
| Nc1ncn([C@H]2C[C@H](O)[C@@H](CO)O2)c(=O)n1 [decitabine] + Cc1nc(Nc2ncc(C(=O)Nc3c(C)cccc3Cl)s2)cc(N2CCN(CCO)CC2)n1 [dasatanib] (first compound 0.1 µM, partner dose 0.004 µM) | 62.3 | 78.5 | 62 | 95.4 | 91 | 100 |
| Nc1nc(F)nc2c1ncn2[C@@H]1O[C@H](CO)[C@@H](O)[C@@H]1O [fludarabine] + Cn1cncc1[C@@](N)(c1ccc(Cl)cc1)c1ccc2c(c1)c(-c1cccc(Cl)c1)cc(=O)n2C [tipifarnib] (first compound 0.2 µM, partner dose 0.01 µM) | 84.7 | 63.1 | 90.3 | 32.3 | 73.8 | 44.5 |
| CO[C@H]1C[C@@H]2CC[C@@H](C)[C@@](O)(O2)C(=O)C(=O)N2CCCC[C@H]2C(=O)O[C@H]([C@H](C)C[C@@H]2CC[C@@H](OCCO)[C@H](OC)C2)CC(=O)[C@H](C)/C=C(\C)[C@@H](O)[C@@H](OC)C(=O)[C@H](C)C[C@H](C)/C=C/C=C/C=C/1C [everolimus] + CCN(CC)CCCCNc1ncc2cc(-c3cc(OC)cc(OC)c3)c(NC(=O)NC(C)(C)C)nc2n1 [PD173074] (first compound 0.02 µM, partner dose 0.1 µM) | 76.5 | 77.6 | 93.6 | 71.2 | 75.1 | 74.5 |
| CC(=O)c1c(C)c2cnc(Nc3ccc(N4CCNCC4)cn3)nc2n(C2CCCC2)c1=O [palbociclib] + COC(=O)c1sccc1S(=O)(=O)Nc1ccc(Nc2ccccc2)cc1OC [GSK0660] (first compound 0.04 µM, partner dose 1 µM) | 65.3 | 65.7 | 81.6 | 64 | 83.4 | 51.9 |
| Nc1ccn([C@@H]2O[C@H](CO)[C@@H](O)C2(F)F)c(=O)n1 [gemcitabine] + C[C@]1(c2nc3c(C(N)=O)cccc3[nH]2)CCCN1 [Veliparib] (first compound 0.0004 µM, partner dose 1.4 µM) | 90.4 | 88.7 | 73.8 | 108 | 78.5 | 99 |
| Nc1ccn([C@@H]2O[C@H](CO)[C@@H](O)C2(F)F)c(=O)n1 [gemcitabine] + O=C1NC(=O)/C(=C/c2ccc(-c3ccc(F)cc3O)o2)S1 [AS252424] (first compound 0.0004 µM, partner dose 1 µM) | 102 | 109 | 43.1 | 105 | 43.8 | 109 |
| Nc1ncn([C@H]2C[C@H](O)[C@@H](CO)O2)c(=O)n1 [decitabine] + COc1cc(Nc2ncc(F)c(Nc3ccc4c(n3)NC(=O)C(C)(C)O4)n2)cc(OC)c1OC [Tamatinib] (first compound 0.1 µM, partner dose 0.4 µM) | 65.2 | 66.5 | 71 | 83.4 | 105 | 108 |
| CC(=O)O[C@@]12CO[C@@H]1C[C@H](O)[C@@]1(C)C(=O)[C@H](O)C3=C(C)[C@@H](OC(=O)[C@H](O)[C@@H](NC(=O)OC(C)(C)C)c4ccccc4)C[C@@](O)([C@@H](OC(=O)c4ccccc4)[C@H]21)C3(C)C [Docetaxel] + COc1cc2ncnc(Nc3ccc(Oc4ccccc4)cc3)c2cc1OC [SrcI1] (first compound 0.0001 µM, partner dose 2 µM) | 53.8 | 36.4 | 42.4 | 43 | 81.8 | 60 |
| CC(=O)O[C@@]12CO[C@@H]1C[C@H](O)[C@@]1(C)C(=O)[C@H](O)C3=C(C)[C@@H](OC(=O)[C@H](O)[C@@H](NC(=O)OC(C)(C)C)c4ccccc4)C[C@@](O)([C@@H](OC(=O)c4ccccc4)[C@H]21)C3(C)C [Docetaxel] + O=C(O)c1ccc(-c2c[nH]c3ncc(-c4ccccc4)cc23)cc1C1CCCC1 [GSK650394] (first compound 0.0001 µM, partner dose 0.16 µM) | 63.1 | 33.7 | 54 | 55.2 | 63.1 | 58 |
| Nc1nc(F)nc2c1ncn2[C@@H]1O[C@H](CO)[C@@H](O)[C@@H]1O [fludarabine] + O=c1cc(-c2cccc3c2Sc2ccccc2S3)oc(N2CCOCC2)c1 [KU55933] (first compound 0.2 µM, partner dose 1 µM) | 108 | 99.2 | 102 | 24.8 | 80.7 | 37.9 |
| Nc1ncn([C@H]2C[C@H](O)[C@@H](CO)O2)c(=O)n1 [decitabine] + CCN(CC)CCCCNc1ncc2cc(-c3cc(OC)cc(OC)c3)c(NC(=O)NC(C)(C)C)nc2n1 [PD173074] (first compound 0.1 µM, partner dose 0.1 µM) | 79.7 | 71 | 103 | 100 | 104 | 93.3 |
| CO[C@H]1C[C@@H]2CC[C@@H](C)[C@@](O)(O2)C(=O)C(=O)N2CCCC[C@H]2C(=O)O[C@H]([C@H](C)C[C@@H]2CC[C@@H](OCCO)[C@H](OC)C2)CC(=O)[C@H](C)/C=C(\C)[C@@H](O)[C@@H](OC)C(=O)[C@H](C)C[C@H](C)/C=C/C=C/C=C/1C [everolimus] + COc1ccc2c(c1)CCC1C2CCC2(C)C(NCCCCCCN3C(=O)C=CC3=O)CCC12 [U73122] (first compound 0.02 µM, partner dose 0.4 µM) | 85.6 | 66.8 | 92.7 | 50 | 48.6 | 79.7 |
| Nc1ccn([C@@H]2O[C@H](CO)[C@@H](O)C2(F)F)c(=O)n1 [gemcitabine] + NCC(=O)Nc1ccc(-n2nc(C(F)(F)F)cc2-c2ccc3c(ccc4ccccc43)c2)cc1 [OSU03012] (first compound 0.0004 µM, partner dose 1 µM) | 90.2 | 96.3 | 68 | 63.6 | 74 | 69.6 |
| CC(=O)O[C@@]12CO[C@@H]1C[C@H](O)[C@@]1(C)C(=O)[C@H](O)C3=C(C)[C@@H](OC(=O)[C@H](O)[C@@H](NC(=O)OC(C)(C)C)c4ccccc4)C[C@@](O)([C@@H](OC(=O)c4ccccc4)[C@H]21)C3(C)C [Docetaxel] + CN(c1ncccc1CNc1nc(Nc2ccc3c(c2)CC(=O)N3)ncc1C(F)(F)F)S(C)(=O)=O [PF562271] (first compound 0.0001 µM, partner dose 0.08 µM) | 46.8 | 26.9 | 37.8 | 40.6 | 71.2 | 43.2 |
